Reference: patent US4362664A, “Vinblastine oxazolidinedione disulfides and related compounds” (priority 1980, dated 1982)

What was measured:
Format in all cases: in vivo
6C3 HED lymphosarcoma = experiment: transplanted tumor in mice: 6C3 HED lymphosarcoma; conditions: 2.5 mg/kg, every fourth day (three doses) from day 1 after inoculation, * = below 30, not statistically significant
P1534(J) = experiment: transplanted tumor in mice: P1534(J) leukemia; conditions: 2.5 mg/kg, every fourth day (three doses), * = below 30, not statistically significant
P388/V = experiment: transplanted tumor in mice: P388/V; conditions: 2.5 mg/kg, every fourth day (three doses), * = below 30, not statistically significant
Procedure: (§1) The bases of this invention and their salts preparable by the processes disclosed herein are active also in vivo against some but not all transplanted tumors in mice.
(§2) The following table--Table 2--gives the results of this experiment in which mice bearing the transplanted tumor were treated with a compound of this invention. In the table, column 1 gives the name of the compound; column 2, the name of the tumor; column 3, the dosage given; and column 4, the percent inhibition of tumor growth (I) or prolongation of life (PL). The following dosage regimen was employed: every fourth day (three doses) starting on the first day after inoculation.

P388/J = experiment: transplanted tumor in mice: P388/J leukemia; conditions: 2.5 mg/kg, every fourth day (three doses), * = below 30, not statistically significant
Procedure: as §1, §2
In the above Table, 6C3 HED is a lymphosarcoma and P1534(J) and […]

Structure (SMILES)	Percent Inhibition of tumor growth (I) (6C3 HED lymphosarcoma) [%]	Percent Inhibition of tumor growth (I) (P1534(J)) [%]	Percent Prolongation of life (PL) (P388/V) [%]	Percent Prolongation of life (PL) (P388/J) [%]
CC[C@]1(O)C[C@H]2CN(CCc3c([nH]c4ccccc34)[C@@](C(=O)OC)(c3cc4c(cc3OC)N(C)[C@H]3[C@]5(OC(=O)N(CCSSCCNC(=O)OC)C5=O)[C@H](OC(C)=O)[C@]5(CC)C=CCN6CC[C@]43[C@@H]65)C2)C1 [Example 1, Vinblastine 3"-(β-[β-(methoxycarbonylamino)ethyldithio]ethyl)-3-spiro-5"-oxazolidine-2",4"-dione]	12	16	38	
CC[C@]1(O)C[C@H]2CN(CCc3c([nH]c4ccccc34)[C@@](C(=O)OC)(c3cc4c(cc3OC)N(C)[C@H]3[C@]5(OC(=O)N(CCS)C5=O)[C@H](OC(C)=O)[C@]5(CC)C=CCN6CC[C@]43[C@@H]65)C2)C1 [Example 2, Vinblastine 3"-(β-thioethyl)-3-spiro-5"-oxazolidine-2",4"-dione]	14	14	22	
CC[C@]1(O)C[C@H]2CN(CCc3c([nH]c4ccccc34)[C@@](C(=O)OC)(c3cc4c(cc3OC)N(C)[C@H]3[C@]5(OC(=O)N(CCSSCCN6C(=O)O[C@]7(C6=O)[C@H](OC(C)=O)[C@]6(CC)C=CCN8CC[C@@]9(c%10cc([C@@]%11(C(=O)OC)C[C@@H]%12CN(CCc%13c%11[nH]c%11ccccc%13%11)C[C@](O)(CC)C%12)c(OC)cc%10N(C)[C@@H]79)[C@@H]86)C5=O)[C@H](OC(C)=O)[C@]5(CC)C=CCN6CC[C@]43[C@@H]65)C2)C1 [Example 3, Bis-[β-(vinblastine-3-spiro-5"-oxazolidine-2",4"-dione-3"-yl)ethyl]disulfide]	46	16		18
